Reference: article PMC12136788
This is one part of the list.

T1: UNK ZnF1-6 (called full-length) (human, UniProt Q9C0B0 30-357)
T1 sequence: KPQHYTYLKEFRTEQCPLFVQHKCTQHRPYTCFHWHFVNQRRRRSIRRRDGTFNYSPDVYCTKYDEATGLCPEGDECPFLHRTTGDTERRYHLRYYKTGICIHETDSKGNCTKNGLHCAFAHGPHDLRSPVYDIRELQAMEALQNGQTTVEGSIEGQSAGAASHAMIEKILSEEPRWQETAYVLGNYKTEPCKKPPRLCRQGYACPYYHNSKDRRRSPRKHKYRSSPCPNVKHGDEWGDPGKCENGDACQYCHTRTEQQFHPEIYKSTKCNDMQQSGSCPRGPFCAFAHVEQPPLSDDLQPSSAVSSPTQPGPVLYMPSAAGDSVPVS

B1: chr22:42060953:42061055:-|CDS|ENSG00000198951|unk|total|mutant (ssRNA)
RNA: GGGAGUUCUACAGUCCGACGAUCCCAGGAAAAAUCUCUCAUCGAAGUGUACAUGCGGCCUCUGUCCAACAAGGCCCGCGCCUCCGUCUUCUUCAGCUGCAGGACCGAUAUGCCUUAUCGCUACCACUCCUCCCUUGGCCAGCUCAACAGAGGAUUGAGCAUCA
B2: chr19:51078814:51078951:-|CDS|ENSG00000129437|control|control|control (ssRNA)
RNA: GGGAGUUCUACAGUCCGACGAUCUCUCUGCAAUGCGUGAACAUCAACAUCUCCCCGGAUGAGGUGUGCCAGAAGGCCUAUCCUAGAACCAUCACGCCUGGCAUGGUCUGUGCAGGAGUUCCCCAGGGCGGGAAGGACUCUUGUCAACAGAGGAUUGAGCAUCA
B3: chr4:42087128:42087229:+|3pUTR|ENSG00000014824|msi1|FALSE|unique (ssRNA)
RNA: GGGAGUUCUACAGUCCGACGAUCAUUUUGUAUAAUAUAGUUCAUACUGUGUCUGUGAGUUUCUUCAGUUACAAAUGGGCAUUUAGUAUAGUUAUAUUGACUAUAACAUGUAAGUAAAUAGCUUUCUACUGACCCUAAGUUAUCCAACAGAGGAUUGAGCAUCA
B4: chr16:3436009:3436110:-|3pUTR|ENSG00000167981|unk|total|mutant (ssRNA)
RNA: GGGAGUUCUACAGUCCGACGAUCAUUAAAAUGAAGGCUCUUGCUAAAGUUAUUUUAAUUUUGUUUACGCCGUUUCUGACUUUCCGAAGGAGGAGAAUUUAUUUAUAUUUUGCCAGUUCUGCAGACAUAUCCCGGAAAGUAAAUCAACAGAGGAUUGAGCAUCA
B5: chr4:138171744:138171845:-|3pUTR|ENSG00000151012|msi1|total|mutant (ssRNA)
RNA: GGGAGUUCUACAGUCCGACGAUCAGGAGUCAGUUAUUUUUAUUCAUAUAUUUCCGCAUAUUCGAACUAAUUUCUAAGAAAUUCCGUUAUAACUCUAUGCCGUUACCGAAAGUGAAUAUGCAGUUAUUCUAUGAGUCGCACAAUCAACAGAGGAUUGAGCAUCA
B6: ENSG00000106683:stop:overlap|stop_codon|ENSG00000106683|stop_codon|NA|stop_codon (ssRNA)
RNA: GGGAGUUCUACAGUCCGACGAUCGCUCUGCCCGGCAGAAACCUGUCUUCGCAAGGACCUGGGUCGCUCUGAGUCCCUCCGCGUAGUCUGCCGGCCACACCGCAUCUUCCGGCCGUCGGACCUCAUCCACGGGGAGGUGCUGGGCAACAGAGGAUUGAGCAUCA
B7: ENSG00000096717:stop:overlap|stop_codon|ENSG00000096717|stop_codon|NA|stop_codon (ssRNA)
RNA: GGGAGUUCUACAGUCCGACGAUCAUGAAGCUAUAUCUGUGAAACAGGAAGUAACAGACAUGAACUAUCCAUCAAACAAAUCAUAGUGUAAUAAUUGUGCAGGUACAGGAAUUGUUCCACCAGCAUUAGGAACUUUAGCAUGUCCAACAGAGGAUUGAGCAUCA
B8: chr8:12150890:12151093:-|CDS|ENSG00000254866|control|control|control (ssRNA)
RNA: GGGAGUUCUACAGUCCGACGAUCGAUGUCUGCAAAGUAGUAGAAGAUCAAAUUGGUGCCUGCCGAAGAAGGAUGAAGUGUUGUAGAGCAUGGUGGAUUUUAAUGCCAAUUCCAACACCACUUAUCAUGUCAGAUUAUCAAGAACAACAGAGGAUUGAGCAUCA
B9: chr1:213005240:213005351:-|CDS|ENSG00000174606|unk|FALSE|unique (ssRNA)
RNA: GGGAGUUCUACAGUCCGACGAUCGAACCCAGUGGAAUUCUUCCGCCCUGAUAUUUCUCUGUUGGACAGAGACAAUGUUGGAUUAGUUUUACUCUUACAGCCCAAAAUUCCAUAUGCUGCCUGCCCUGCAAUCUGCGUAGCAAACAACAGAGGAUUGAGCAUCA
B10: ENSG00000124766:be:win_1101|CDS|ENSG00000124766|bound_else_gene|NA|bound_elsewhere_windowed (ssRNA)
RNA: GGGAGUUCUACAGUCCGACGAUCCUCGCCCGCCCCGUCCAGCGCGCCCUCGCACGCGUCCUCCUCGGCCUCGUCCCACUCCUCCUCUUCCUCCUCCUCGGGCUCCUCGUCCUCCGACGACGAGUUCGAAGACGACCUGCUCGACAACAGAGGAUUGAGCAUCA
B11: ENSG00000148396:stop:overlap|stop_codon|ENSG00000148396|stop_codon|NA|stop_codon (ssRNA)
RNA: GGGAGUUCUACAGUCCGACGAUCCCACCUCCGGGAGCUCAAGGCUAGGGAGGAUUGGCCAGAGGAAGCACCUGGUGCUGAACUAGGCUUGCCCUGCUGUGAACUUGCACUUGGAGCCCUGACGCUGCUGUUCUCCCCGAAGAACAACAGAGGAUUGAGCAUCA
B12: ENSG00000198589:be:win_4101|CDS|ENSG00000198589|bound_else_gene|NA|bound_elsewhere_windowed (ssRNA)
RNA: GGGAGUUCUACAGUCCGACGAUCUAUGGUCAUGGCUUGUGGGGGUAUACUGCCAUUGCUUUCAGCUGCUACAUCGGCUACACAUGAACUGGAAAAUAUUGAACCUACUCAAGGCCUUUCAAUAGAAGCCUCUGUGACAUUUUUCAACAGAGGAUUGAGCAUCA
B13: ENSG00000100439:stop:overlap|stop_codon|ENSG00000100439|stop_codon|NA|stop_codon (ssRNA)
RNA: GGGAGUUCUACAGUCCGACGAUCCUGUCCUAGGACGUUCCAAUCCAUUGGCUGUUCUUCGAGUAGCUGGGCCCUGGGGUGAGUAGCCUGAAUACAAAGGUGACUAAGAUUCUGCCUCAGUCUCUGAAGAGACCAACAAGUUGACAACAGAGGAUUGAGCAUCA
B14: chr11:108173179:108173289:-|CDS|ENSG00000149308|unk|FALSE|unique (ssRNA)
RNA: GGGAGUUCUACAGUCCGACGAUCUGGUUCCAAGUCAUCAGAUUCUAGUGAAGUUCACAAGAGUAAAAUAGAAAUUAAUGUGUUAGAACCAGUUAUGUCACAGCUAUCAAAUUGCCAAGAUAAUUCUUGUCUUCAAAGUGAAAUCAACAGAGGAUUGAGCAUCA
B15: chr17:35009752:35009853:-|3pUTR|ENSG00000092871|msi1|total|mutant (ssRNA)
RNA: GGGAGUUCUACAGUCCGACGAUCAUUCAGCUACUCAGUUCCUCUGUAAAACAGGUCUAUGUAUGUGCAAUUCAGCUAAGAUCCCGCAGUAACUUAAGGGCAGAAGCUGGCUCUCUACUUACAACCUGCUUUCUCUGCUGAAGCCAACAGAGGAUUGAGCAUCA
B16: ENSG00000107863:be:win_3951|CDS|ENSG00000107863|bound_else_gene|NA|bound_elsewhere_windowed (ssRNA)
RNA: GGGAGUUCUACAGUCCGACGAUCGGUCACCCACAUGCCUGACCAGUACAAGAUUGUAGAAACGCUCAUCCAGCACCAUGACUGGUUUUUCACAGAAGAAGGUGCUGAAGAGCCUCUUACAACAGUGCAGGAGGAAAGCACAGUCAACAGAGGAUUGAGCAUCA
B17: chr20:38493008:38493109:+|CDS|ENSG00000170471|unk|total|mutant (ssRNA)
RNA: GGGAGUUCUACAGUCCGACGAUCAUUGGAUGGAGAGACUGUAAAAUAUUGCGUUGAUGUAUAUACAGACUGGAUUAUGGCUUCCGUGUUGCCAAAAGAUUCUAUUCCAUUGCCAGUUAUUAAAGAGCCUAAUCAAUAUGUUCACAACAGAGGAUUGAGCAUCA
B18: chrX:100674576:100674677:+|3pUTR|ENSG00000102359|msi1|total|mutant (ssRNA)
RNA: GGGAGUUCUACAGUCCGACGAUCUUGCAAUCCACACCAAAUCAAUCUUUGAAAACAUUCCUCCAUUCGGUUCAUACAUACAGCCGAAACCACUGUGGCUGCCCUUAAUCCAGUGUGCUUACCGGAAAUCAGUCCGCAGCUGACCAACAGAGGAUUGAGCAUCA
B19: chr7:44210018:44212343:-|three_prime_utr|ENSG00000058404|control|control|control (ssRNA)
RNA: GGGAGUUCUACAGUCCGACGAUCCCCCAAUCCUGGCAGGCGUGGCAGAGGGAGCUCCACAGGACACAGCCAGGCAGAGAAACUAGCACUAGAACAGGGUGGGGGUGGAGGCCUUGAGGGAAGCUGUCCACAAGCAAUUCCCAUCAACAGAGGAUUGAGCAUCA
B20: chr1:23091194:23091296:-|CDS|ENSG00000169641|unk|total|mutant (ssRNA)
RNA: GGGAGUUCUACAGUCCGACGAUCCUCCAGAAGGACCCAAAGCCGCCUCACUGUGUCAGAGGUGCUUACCCGUCGGAAUCGGGCCGGAGACACCAUCACUGUCGCAGCCUGGAACCACUCAGCAAGCAUGGUGAGUUCCAGCCUCAACAGAGGAUUGAGCAUCA
B21: chr12:122271799:122271900:-|3pUTR|ENSG00000130779|msi1|FALSE|bound_elsewhere (ssRNA)
RNA: GGGAGUUCUACAGUCCGACGAUCGUAUAAAACACCUAAAUAACCAAUCUACAAUCUCCCUUCACAAGUUUUUUUACUGUUUUUAGAUGAAUGUACGAUGAGAAAUUCAACGUUAAUAAUUCUGGAUUUUCUUAUCACAAAAAACAACAGAGGAUUGAGCAUCA
B22: chr12:68660398:68660499:+|3pUTR|ENSG00000127314|msi1|total|mutant (ssRNA)
RNA: GGGAGUUCUACAGUCCGACGAUCUUGAGGUGGCCAAAUGUAAACUAAAAGCCUUAAUUAAAGUGGUGCAAUUUUGUAUAACUCCGCAUCAGCCGUUCAAUAAAUUUGGAUUGCCAUGCAAGGGCUUGCAUUAUAAUUACUUGCCAACAGAGGAUUGAGCAUCA

Target: T1, UNK ZnF1-6 (called full-length)
Assay: nsRBNS (natural sequence RNA bind-n-seq); RBNS binding buffer (assumed for nsRBNS): 25 mM Tris pH 7.5, 150 mM KCl, 3 mM MgCl2, 0.01% Triton X-100, 500 ug/ml BSA, 20 U/ml SUPERase-In, 4 C; UNK is unkempt and MSI1 is Musashi-1; names of the RNAs are library labels; protein concentration not given here; high values mean tight binding

Question: How did the binding signal turn out when B1 was run?
Answer: 0.824 enrichment R

Question: With B2 as the binder, how does the binding signal read?
Answer: 0.785 enrichment R

Question: B3 was tested. Which binding signal did it give?
Answer: 0.868 enrichment R

Question: Which binding signal does the source give for B4 here?
Answer: 0.777 enrichment R

Question: Which binding signal does the source give for B5 here?
Answer: 0.557 enrichment R

Question: How did the binding signal turn out when B6 was run?
Answer: 0.972 enrichment R

Question: With B7 as the binder, how does the binding signal read?
Answer: 0.722 enrichment R

Question: With B8 as the binder, how does the binding signal read?
Answer: 0.546 enrichment R

Question: How did the binding signal turn out when B9 was run?
Answer: 1.54 enrichment R

Question: Which binding signal does the source give for B10 here?
Answer: 0.818 enrichment R

Question: With B11 as the binder, how does the binding signal read?
Answer: 0.761 enrichment R

Question: With B12 as the binder, how does the binding signal read?
Answer: 0.489 enrichment R

Question: With B13 as the binder, how does the binding signal read?
Answer: 0.805 enrichment R

Question: How did the binding signal turn out when B14 was run?
Answer: 0.756 enrichment R

Question: For B15, which binding signal is on record?
Answer: 0.493 enrichment R

Question: With B16 as the binder, how does the binding signal read?
Answer: 0.472 enrichment R

Question: For B17, which binding signal is on record?
Answer: 0.436 enrichment R

Question: For B18, which binding signal is on record?
Answer: 0.416 enrichment R

Question: How did the binding signal turn out when B19 was run?
Answer: 1.39 enrichment R

Question: How did the binding signal turn out when B20 was run?
Answer: 0.603 enrichment R

Question: With B21 as the binder, how does the binding signal read?
Answer: 1.07 enrichment R

Question: B22 was tested. Which binding signal did it give?
Answer: 0.352 enrichment R
